The campaign covered roughly 310,000 compounds. About 14,000 (4.5%) showed an effect of 50% or more. Effects have a minus sign here. This is one part of the list. Where a SMILES comes first, the peptide text is derived from it. [ ]: non-standard residue; d: D form. pGlu = O=C1CC[CH](C(=O)O)N1
These compounds were tested against human ether-à-go-go-related gene (hERG) potassium channel (human, UniProt Q12809) (assay: primary screen, population patch clamp on CHO cells stably expressing hERG).
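Also: peak tail current of the secondary pulse compared with the same well before compound.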

Chain of human ether-à-go-go-related gene (hERG) potassium channel (Q12809 whole entry, looked up): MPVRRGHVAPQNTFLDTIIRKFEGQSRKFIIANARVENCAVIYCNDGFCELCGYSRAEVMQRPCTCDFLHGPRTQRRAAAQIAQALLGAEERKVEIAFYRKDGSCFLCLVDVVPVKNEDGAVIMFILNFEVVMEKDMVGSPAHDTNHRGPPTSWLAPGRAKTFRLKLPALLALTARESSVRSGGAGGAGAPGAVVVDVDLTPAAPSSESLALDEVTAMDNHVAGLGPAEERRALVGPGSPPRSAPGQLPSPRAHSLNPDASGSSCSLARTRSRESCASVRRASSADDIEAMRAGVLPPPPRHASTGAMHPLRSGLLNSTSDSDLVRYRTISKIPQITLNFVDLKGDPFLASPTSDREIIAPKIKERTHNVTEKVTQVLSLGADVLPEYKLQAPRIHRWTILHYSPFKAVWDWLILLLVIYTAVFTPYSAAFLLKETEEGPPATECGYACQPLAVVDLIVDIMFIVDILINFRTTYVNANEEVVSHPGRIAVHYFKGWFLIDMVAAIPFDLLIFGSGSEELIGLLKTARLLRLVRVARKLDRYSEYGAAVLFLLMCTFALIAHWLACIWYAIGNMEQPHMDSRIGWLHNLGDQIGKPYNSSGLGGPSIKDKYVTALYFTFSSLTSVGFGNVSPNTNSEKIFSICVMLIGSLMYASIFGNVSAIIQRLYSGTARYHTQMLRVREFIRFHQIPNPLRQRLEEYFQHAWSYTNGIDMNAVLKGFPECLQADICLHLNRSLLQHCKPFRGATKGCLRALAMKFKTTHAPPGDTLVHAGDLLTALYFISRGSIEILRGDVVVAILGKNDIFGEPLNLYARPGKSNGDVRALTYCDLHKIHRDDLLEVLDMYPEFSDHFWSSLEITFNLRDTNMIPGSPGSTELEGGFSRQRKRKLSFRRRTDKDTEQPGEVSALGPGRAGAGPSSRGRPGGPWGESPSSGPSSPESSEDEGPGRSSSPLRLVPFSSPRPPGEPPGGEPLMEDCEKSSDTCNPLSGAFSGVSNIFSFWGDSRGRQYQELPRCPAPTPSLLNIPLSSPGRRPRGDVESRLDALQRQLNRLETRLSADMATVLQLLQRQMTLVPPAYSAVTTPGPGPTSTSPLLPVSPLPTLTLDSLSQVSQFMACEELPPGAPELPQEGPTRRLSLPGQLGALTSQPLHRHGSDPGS

| SMILES | hERG current change (%, negative = inhibition) at 10uM [%] |
| --- | --- |
| COc1ccc(N2C(=O)c3cccc4cccc(c34)C2=O)nn1 | -3.92 |
| Cc1ccc2c(C)c(C(=O)Nc3c(C)n(C)n(-c4ccccc4)c3=O)oc2c1C | -29.4 |
| Cc1cc(C)nc(SCNC(=O)c2ccc(F)cc2)n1 | 6.25 |
| CC(CCc1ccccc1)NS(=O)(=O)c1ccccc1Cl (stereo not shown) | -2.92 |
| COc1ccc(C(C)NC(=O)C23CC4CC(CC(C4)C2)C3)cc1 (stereo not shown) | 19.2 |
| COc1ccc(/C=C/C(=O)NC(=S)Nc2ccc(S(=O)(=O)Nc3ccc(OC)nn3)cc2)cc1 | 6.72 |
| Cc1cccc2[nH]c3c(N4CCC5(CC4)OCCO5)ncnc3c12 | -14 |
| CC(C)(C)c1cc2nc(N)nc(N)n2n1 | 7.36 |
| Cc1cc(C(F)F)nn1CC(=O)N1CCSCC1 | 4.41 |
| O=C(O)CCCC(=O)Nc1ccc(Br)cc1C(=O)O | 11 |
| COc1ccc(-c2csc(-c3cc4ccccc4oc3=N)n2)cc1 | -4.44 |
| Cl.N=c1c[n+](N2CCOCC2)[n-]o1 | 24.4 |
| COC(=O)c1cc2sccc2n1Cc1nc(-c2ccc(Cl)cc2)oc1C | 9.92 |
| COCCNC(=O)C(OC(=O)c1ccco1)c1ccccc1F (stereo not shown) | 7.27 |
| Cn1cc(Cl)c(C(=O)Nc2nc3ccccc3s2)n1 | -5.55 |
| c1ccc(Oc2nc(Oc3ccccc3)nc(N3CCOCC3)n2)cc1 | -9.22 |
| COCCN(Cc1ccccc1)C(=O)C1CCN(S(=O)(=O)c2ccc3c(c2)OCCO3)CC1 | -29.1 |
| Cc1cc(C)n(-c2c(F)c(F)c(CN3CCOCC3)c(F)c2F)n1 | 10.8 |
| O=C(NCCc1ccc(Cl)cc1Cl)c1ccc2nc[nH]c2c1 | 6.25 |
| Oc1c(C(Nc2cccc(C(F)(F)F)c2)c2ccncc2)ccc2cccnc12 (stereo not shown) | 12.3 |
| Cc1ccc(NC(=O)CSc2nnc(Cc3ccccc3)o2)c(C)c1 | 18.4 |
| COc1ccc(OC)c(CC(=O)Nc2ccc3c(c2)CCC3)c1 | 23.2 |

| SMILES | hERG current change (%, negative = inhibition) at 10uM [%] |
| --- | --- |
| CCC(=O)Nc1ccccc1C(=O)N1CCOCC1 | 17.2 |
| CC(=Nc1c(C)n(C)n(-c2ccccc2)c1=O)c1c(O)n(Cc2ccccc2)c(=O)[nH]c1=O | 14.6 |
| O=S1(=O)CCC(N=Cc2cc(Br)ccc2O)C1 (stereo not shown) | -1.41 |
| CCc1cc(=O)oc2cc(OCC(=O)NCCN3CCOCC3)c(Cl)cc12 | 13.3 |
| Cc1c(C(=O)OCC(=O)N2CCCC2=O)oc2ccccc12 | 12.4 |
| CCN(CC)c1ccc(NC(=O)c2cccnc2)cc1 | 4.44 |
| CCCn1c(SCC(=O)NCc2ccc3c(c2)OCO3)n[nH]c1=O | -2.27 |
| Cc1cc(C)n(C(=O)CNC(=O)/C=C/c2ccccc2)n1 | 16.6 |
| CCC(C)N(C)C1CCN(C(=S)Nc2ccc(OC)cc2)CC1 (stereo not shown) | 11.6 |
| CCOCCCNc1nc2nc3ccc(C)cn3c(=O)c2cc1C(=O)NCC1CCCO1 (stereo not shown) | -77.7 |
| CCn1nnnc1NCc1ccc(Cl)cc1 | 9.44 |
| CCN(CC)CCNC(=O)CCc1c(C)nc2c(c(C)nn2-c2ccc(C)cc2)c1C | -55.4 |
| CCCCn1c(N)c(N(CCC(C)C)C(=O)COC(=O)c2cccnc2Cl)c(=O)[nH]c1=O | 14.5 |
| O=C(NCc1ccccc1)c1ccc2c(c1)C(=O)N(Cc1ccncc1)C2=O | -34.6 |
| COc1ccc(CCNC(=O)CSc2nnc(CNc3ccc(Cl)cc3)o2)cc1OC | -16.8 |
| O=C1c2ccccc2NC(c2ccccc2O)N1c1ccc(F)cc1 (stereo not shown) | 5.56 |
| COc1ccccc1-c1nc(-c2ccc(Br)o2)no1 | 12.9 |
| COc1ccc(N2C(=O)[C@@H]3[C@H](C2=O)[C@H]2C=CC=NN2[C@@H]3C(=O)Nc2ccc(Cl)cc2)cc1 | -32.4 |
| CCOC(=O)c1cccc(NC(=O)c2ccc(F)cc2F)c1 | -16.1 |
| N#CCC(=O)N/N=C/c1cn(Cc2cccc3ccccc23)c2ccccc12 | 1.77 |
| Cc1ccc2c(c1)C1CN(C)CCC1N2S(=O)(=O)c1ccc(C(C)C)cc1 (stereo not shown) | -73.4 |
| Oc1c(C(c2ccccn2)N2CCCCC2)cc(Cl)c2cccnc12 (stereo not shown) | -9.95 |

| SMILES | hERG current change (%, negative = inhibition) at 10uM [%] |
| --- | --- |
| O=C(Nc1ccccn1)c1ccc2nc(-c3ccccc3)c(-c3ccccc3)nc2c1 | 6.84 |
| O=C(Oc1ccc(Br)cc1C(=S)N1CCCCC1)c1cc([N+](=O)[O-])cc([N+](=O)[O-])c1 | 15 |
| Cc1nc(-c2ccc(-c3ccon3)s2)no1 | 15.1 |
| C=CCOc1ccc(/C=C/C(=O)Nc2ccc(C(=O)NC)cc2)cc1 | -8.15 |
| CCN(CC(=O)Nc1c(F)cccc1F)C(=O)C1CCN(S(=O)(=O)c2ccc(C)c(C)c2)CC1 | -1.77 |
| Cc1ccccc1Cn1c2ccccc2c2cnn(CC(=O)NCCCN3CCN(C)CC3)c(=O)c21 | -3.23 |
| CCC(C)C(NC(=O)C(CC(C)C)NC(=O)C(CO)NC(=O)C1CCC(=O)N1)C(=O)OC (stereo not shown) ([pGlu]SLI-OMe; configuration not given here) | 5.46 |
| COc1ccc(CC(C)NS(=O)(=O)c2ccc3c(c2)CCN3S(C)(=O)=O)cc1OC (stereo not shown) | -23.4 |
| CC(/C=C/c1ccco1)=N\NC(=O)CNc1ccc2ccccc2c1 | 1.9 |
| CCc1ccc(N2CC(C(=O)N/N=C/c3cc([N+](=O)[O-])ccc3O)CC2=O)cc1 (stereo not shown) | -28.7 |
| COc1cc(NC(=O)C2CC2)c(OC)cc1NC(=O)c1ccco1 | 13.1 |
| O=S(=O)(Nc1cccc2ccccc12)c1ccccc1F | 16.5 |
| Cn1c(=O)c2c(nc(N3CCCCCC3)n2CC(=O)c2ccc(Br)cc2)n(C)c1=O | 2.9 |
| C=CCn1c(C)cc(C(=O)COC(=O)CNC(=O)c2ccccc2)c1C | -1.25 |
| Cn1ncc(Br)c1C(=O)N/N=C/c1ccc(OS(=O)(=O)c2ccccc2)cc1 | -7.68 |
| CSCC[C@H](NC(=O)OC(C)(C)C)C(=O)N/N=C/c1cccc2nccnc12 | -0.945 |
| CC(NC(=O)c1ccco1)C(=O)N1CCN(c2ccccc2)CC1 (stereo not shown) | 22 |
| COc1ccc(C(=O)OCC(=O)N2CCCCC2)cc1[N+](=O)[O-] | -1.01 |
| COc1ccc(Nc2nc(N3CCN(S(C)(=O)=O)CC3)nc3ccccc23)c(OC)c1 | -22.7 |
| CN1C(C(=O)NCc2ccco2)=CC(c2ccc(F)cc2)=NS1(=O)=O | -34.2 |
| c1ccc(-c2cn3c(n2)SCC3)cc1 | -1.31 |
| CCOC(=O)N1CCN(c2cc(=O)n(C3CCCCC3)c(=O)[nH]2)CC1 | -2.42 |

| SMILES | hERG current change (%, negative = inhibition) at 10uM [%] |
| --- | --- |
| Fc1ccccc1N=C1NN=C(c2ccccc2)CS1 | 23.2 |
| Cc1ccc(-n2c(C)cc(C(=O)CSc3n[nH]c(N)n3)c2C)cc1 | 5 |
| CC1CCCN(C(=O)COC(=O)Cc2ccc(Cl)cc2)C1 (stereo not shown) | 12.6 |
| Nc1cc(Cl)ccc1N1CCOCC1 | -1.57 |
| Cc1ccc(C(=O)C2=C(O)C(=O)N(c3ncccn3)C2c2ccc(F)cc2)o1 (stereo not shown) | 25.6 |
| Cl.O=C(CN1C2=NCCN2c2ccccc21)N1CCOCC1 | 9.79 |
| COc1ccc(NC(=O)CN2CCN(Cc3ccc4c(c3)OCO4)CC2)cc1OC.O=C(O)C(=O)O | -17.4 |
| COCCCN1CN(Cc2ccccc2)CNC1=S | 5.46 |
| COc1ccc(CN2CC(C(=O)NCCCN3CCN(C)CC3)CC2=O)cc1 (stereo not shown) | 3.03 |
| Cc1ccccc1-n1c(SCC(=O)Nc2cccc3ccccc23)nc(O)cc1=O | 15.4 |
| CCc1ccc(NC(=S)N2CCN(c3cccc(OC)c3)CC2)cc1 | 17.4 |
| CC1(C)COC2(OC1)C(=O)Nc1ccccc12 | 26.6 |
| CCN1c2ccccc2-c2nc3ccccc3n2C1c1ccccn1 (stereo not shown) | -37.9 |
| CC(=O)C1=C(C)NC(SCc2cccc([N+](=O)[O-])c2)=C(C#N)C1c1ccco1 (stereo not shown) | -19.6 |
| COc1ccc(C(=O)N/C(=C\c2ccc3c(c2)OCO3)C(=O)N2CCOCC2)cc1 | 19.6 |
| O=C1CS(=O)CN1c1ccc(Oc2ccccc2)cc1 (stereo not shown) | -6.64 |
| O=C(Nn1c(-c2ccc(Br)cc2)nc2ccccc2c1=O)c1ccncc1 | 20.2 |
| COC(=O)C1=C(c2ccc(OC)c(OC)c2)C[C@@H]2CC[C@H]1N2C(=O)NC(C)C | 19.6 |
| Cc1cccn2c(=O)nc(SCC(=O)NC3CCCCC3)nc12 | -14.8 |
| Cn1nnc2cc(NC(=O)NCc3ccc4c(c3)OCO4)ccc21 | 11 |
| CC1(C)Cc2c(sc(NC(=O)c3ccccc3)c2C(=O)O)CO1 | 19.5 |
| O=C(NCc1cccnc1)C1CC2c3ccccc3C1c1ccccc12 (stereo not shown) | -5.76 |

Reference: paper PMC4336329 (PLoS ONE, 2015)
